The other results are listed elsewhere or left out. Single values are uncertain, as repeats are few or missing.
What was measured:
Assay in all cases: cell count relative to DMSO control; melanoma cells; higher = more viable cells
Conditions in all cases: library dose: low library concentration; 72 h
COLO792 = test system: COLO792
COLO800 = test system: COLO800
COLO829 = test system: COLO829
G361 = test system: G361
IPC-298 = test system: IPC-298
IST-MEL1 = test system: IST-MEL1
LB2518-MEL = test system: LB2518-MEL
LOXIMVI = test system: LOXIMVI
MEL-HO = test system: MEL-HO
MZ2-MEL = test system: MZ2-MEL
MeWo = test system: MeWo
RPMI7951 = test system: RPMI7951
RVH-421 = test system: RVH-421
SkMel28 = test system: SkMel28
SkMel2 = test system: SkMel2
SkMel30 = test system: SkMel30
SkMel5 = test system: SkMel5
UACC257 = test system: UACC257
UACC62 = test system: UACC62
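Note: cell number obtained by counting DAPI-stained nuclei in high-throughput microscope images with image analysis software, screen run in 1,536-well plates.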

SMILES	cell count (COLO792) [%]	cell count (COLO800) [%]	cell count (COLO829) [%]	cell count (G361) [%]	cell count (IPC-298) [%]	cell count (IST-MEL1) [%]	cell count (LB2518-MEL) [%]	cell count (LOXIMVI) [%]	cell count (MEL-HO) [%]	cell count (MZ2-MEL) [%]	cell count (MeWo) [%]	cell count (RPMI7951) [%]	cell count (RVH-421) [%]	cell count (SkMel28) [%]	cell count (SkMel2) [%]	cell count (SkMel30) [%]	cell count (SkMel5) [%]	cell count (UACC257) [%]	cell count (UACC62) [%]
Cc1nc(Nc2ncc(C(=O)Nc3c(C)cccc3Cl)s2)cc(N2CCN(CCO)CC2)n1 [dasatanib] + O=C(Nc1cccc(Cl)c1)Nc1ncc(CCNc2ncnc3ccsc23)s1 [SNS314] (first compound 0.004 µM, partner dose 0.0008 µM)	60.3	80.7	55.8	85.9	99.8	81.4	89.8	48.8	80.7	79	93.3	82.1	86.9	76.7	88.5	101	86.2	72.4	81.1
CO[C@@H]1[C@H](N(C)C(=O)c2ccccc2)C[C@H]2O[C@]1(C)n1c3ccccc3c3c4c(c5c6ccccc6n2c5c31)C(=O)NC4 [Midostaurin] + OCCn1cc(-c2cnc3nnn(Cc4ccc5ncccc5c4)c3n2)cn1 [PF04217903] (first compound 0.08 µM, partner dose 1 µM)	102	166	98.2	90.2	102	105	84.1	85.2	104	109	95.8	95.4	4.2	102	96.2	110	106	107	91.4
CO[C@@H]1[C@H](N(C)C(=O)c2ccccc2)C[C@H]2O[C@]1(C)n1c3ccccc3c3c4c(c5c6ccccc6n2c5c31)C(=O)NC4 [Midostaurin] + O=C(Nc1cccc(Cl)c1)Nc1ncc(CCNc2ncnc3ccsc23)s1 [SNS314] (first compound 0.08 µM, partner dose 0.0008 µM)	88.4	63.1	86.2	79.7	104	91.4	79.3	68	92.9	87.4	81.9	65.1	86	97.7	79.3	106	96.4	74.4	70.7
Cc1nc(Nc2ncc(C(=O)Nc3c(C)cccc3Cl)s2)cc(N2CCN(CCO)CC2)n1 [dasatanib] + CC1(C)NC(=O)N(c2ccc([N+](=O)[O-])c(C(F)(F)F)c2)C1=O [nilutamide] (first compound 0.004 µM, partner dose 1 µM)	66.5	94.1	84.9	88.6	97.2	85.3	93.6	91.3	84.7	84.5	88	84.8	72.7	76.2	91.8	90.4	88	85.4	67.6
C[C@]1(c2nc3c(C(N)=O)cccc3[nH]2)CCCN1 [Veliparib] + C=CCn1c(=O)c2cnc(Nc3ccc(N4CCN(C)CC4)cc3)nc2n1-c1cccc(C(C)(C)O)n1 [MK1775] (first compound 1.4 µM, partner dose 0.02 µM)	89.8	101	81.5	93.7	96.9	94.3	77.3	147	101	95.8	90.4	101	72.9	79	88.7	94.4	81.6	66.9	69.7
NCC(=O)Nc1ccc(-n2nc(C(F)(F)F)cc2-c2ccc3c(ccc4ccccc43)c2)cc1 + CN(NC(=O)CC(=O)NN(C)C(=S)c1ccccc1)C(=S)c1ccccc1 [STA4783] (first compound 1 µM, partner dose 0.006 µM)	73.3	42.3	76.2	80.3	81.4	81.3	62.4	69.5	82.7	92.7	56.3	95.3	87.3	101	80.4	50.9	108	110	76.7
NC(=O)Nc1cc(-c2cccc(F)c2)sc1C(=O)N[C@H]1CCCNC1 + Cc1cc(N2CCOCC2)cc2[nH]c(-c3c(NC[C@@H](O)c4cccc(Cl)c4)cc[nH]c3=O)nc12 [BMS536924] (first compound 0.02 µM, partner dose 0.2 µM)	72.7	43.6	120	100	92.3	106	110	110	93.4	102	95.9	97.2	114	96.9	95.1	101	84.2	89.7	78.4
C=CCn1c(=O)c2cnc(Nc3ccc(N4CCN(C)CC4)cc3)nc2n1-c1cccc(C(C)(C)O)n1 + NCC(=O)Nc1ccc(-n2nc(C(F)(F)F)cc2-c2ccc3c(ccc4ccccc43)c2)cc1 [OSU03012] (first compound 0.02 µM, partner dose 1 µM)	91	119	78.9	97.2	96.5	95.1	99.6	87.5	94.2	97.3	55.2	90.3	75.8	68.4	64.8	40.9	93	85.2	82.1
Cc1nc(Nc2ncc(C(=O)Nc3c(C)cccc3Cl)s2)cc(N2CCN(CCO)CC2)n1 [dasatanib] + NCC(=O)Nc1ccc(-n2nc(C(F)(F)F)cc2-c2ccc3c(ccc4ccccc43)c2)cc1 [OSU03012] (first compound 0.004 µM, partner dose 1 µM)	54.9	87.9	64.4	93.6	73.9	85.6	93.4	30.7	91.5	71.9	64.8	62.9	94.1	64.8	54.1	74.4	85	77.8	76.2
C[C@]1(c2nc3c(C(N)=O)cccc3[nH]2)CCCN1 [Veliparib] + CO[C@@H]1[C@H](N(C)C(=O)c2ccccc2)C[C@H]2O[C@]1(C)n1c3ccccc3c3c4c(c5c6ccccc6n2c5c31)C(=O)NC4 [Midostaurin] (first compound 1.4 µM, partner dose 0.08 µM)	108	54.1	104	74	101	76.8	89.7	89.1	103	95.3	79.9	92.9	83.9	89	81.1	108	104	73.4	77.8
C=CCn1c(=O)c2cnc(Nc3ccc(N4CCN(C)CC4)cc3)nc2n1-c1cccc(C(C)(C)O)n1 + CN(C)S(=O)(=O)c1ccc2c(c1)/C(=C/c1cc3c([nH]1)CCCC3)C(=O)N2 [SU6656] (first compound 0.02 µM, partner dose 0.4 µM)	95.5	95	83.4	97	97.1	112	79.6	132	99.5	101	102	104	79.2	92.5	101	103	86.7	99.2	93.2
NC(=O)Nc1cc(-c2cccc(F)c2)sc1C(=O)N[C@H]1CCCNC1 + O=C(O)c1ccc(-c2c[nH]c3ncc(-c4ccccc4)cc23)cc1C1CCCC1 [GSK650394] (first compound 0.02 µM, partner dose 0.16 µM)	96	133	98.4	93	94.2	105	111	145	90	92.2	95.2	79.3	99.4	104	112	120	91.9	103	95.9
CO[C@@H]1[C@H](N(C)C(=O)c2ccccc2)C[C@H]2O[C@]1(C)n1c3ccccc3c3c4c(c5c6ccccc6n2c5c31)C(=O)NC4 [Midostaurin] + CC(C)(C)c1cnc(CSc2cnc(NC(=O)C3CCNCC3)s2)o1 [SNS-032] (first compound 0.08 µM, partner dose 0.01 µM)	90.9	74.4	94.8	93.6	94.1	93	87.1	95.9	93.1	95.8	85.9	77.7	108	89	91.4	92	90	72.3	55.7
C[C@]1(c2nc3c(C(N)=O)cccc3[nH]2)CCCN1 [Veliparib] + NC(=O)Nc1cc(-c2cccc(F)c2)sc1C(=O)N[C@H]1CCCNC1 [AZD7762] (first compound 1.4 µM, partner dose 0.02 µM)	88.5	86.6	89.2	103	108	107	98.6	75.1	106	114	87.8	97	130	112	103	83	110	150	87.3
OCCn1cc(-c2cnc3nnn(Cc4ccc5ncccc5c4)c3n2)cn1 + O=C(O)c1ccc(-c2c[nH]c3ncc(-c4ccccc4)cc23)cc1C1CCCC1 [GSK650394] (first compound 1 µM, partner dose 0.16 µM)	106	89	82.5	109	91.8	106	82	118	93.2	90.6	95.3	88.7	89.3	90.4	97.1	102	89.6	79.4	97.1
CO[C@@H]1[C@H](N(C)C(=O)c2ccccc2)C[C@H]2O[C@]1(C)n1c3ccccc3c3c4c(c5c6ccccc6n2c5c31)C(=O)NC4 [Midostaurin] + Cn1cncc1[C@@](N)(c1ccc(Cl)cc1)c1ccc2c(c1)c(-c1cccc(Cl)c1)cc(=O)n2C [tipifarnib] (first compound 0.08 µM, partner dose 0.01 µM)	88.5	65.3	80.1	90.5	80.5	85.1	62.1	91.8	92.7	80.4	79.5	54	97.9	70.8	67.5	85.9	91.4	60.2	65.4
C[C@]1(c2nc3c(C(N)=O)cccc3[nH]2)CCCN1 [Veliparib] + COc1cc(Nc2ncc(F)c(Nc3ccc4c(n3)NC(=O)C(C)(C)O4)n2)cc(OC)c1OC [Tamatinib] (first compound 1.4 µM, partner dose 0.4 µM)	51.7	89.1	89.6	86.4	74	90.7	49.4	77.7	97	89	89.2	86.2	91.8	73.7	91.6	72.5	85.3	75.2	75

Reference: the supplement of paper PMC4604168 (melanoma cell lines)
